Data published in patent US6737241B2, “Methods for screening for transdominant intracellular effector peptides and RNA molecules” (Rigel Pharmaceuticals, Inc., priority 1996, dated 2004).

Tested on: Jurkat EcoR cells
Experiment: IgM anti-Fas (CH-11) selection of retrovirus-transduced Jurkat cells
Settings: 10 ng/ml CH-11, 5 days, then 10 days after addition of RPMI/20% FCS
Protocol: A sterile Acrodisc 0.45 micron syringe filter (Gelman Sciences) was attached to the end of a 10 ml sterile syringe and the injection stopper sterilely removed from the syringe barrel. At 48 hours post-transfection, the virus supernatant was removed from the Phoenix cells and added to the syringe barrel. The stopper was replaced and the virus supernatant was ejected dropwise into a clean, sterile conical tube. The Phoenix cell plates were set aside for X-Gal staining (see below). Polybrene was added to each viral supernatant (Sigma; 2.5 mg/ml in ddH20=500×; store at −20° C.) to a final concentration of 5 mg/ml. 4.5×10^6 Jurkat EcoR cells (Jurkat cells stably expressing the ecotropic retrovirus receptor) were pelleted for 1400 rpm for five min and resuspended in 9 mls of the OL-2 library virus supernatant. The cells were distributed in aliquots of 1 ml, or 5×10^5 cells, into the wells of a 24 well plate. 1.5×10^6 Jurkat EcoR cells were similarly treated with 3 mls each of the lacZ viral supernatant and the OL-1 viral supernatant. Each cell plate was wrapped in parafilm, placed in a microplate carrier (DuPont) and centrifuged at 2500 rpm for 90 min at 32° C. in a DuPont/Sorvall RT 6000B table top centrifuge. After centrifugation, the cells were observed under a microscope. […] The parafilm was removed from the plates, which were placed at 32° C. […]

Question: MGKRKGDEVDGVGPP [OL-1] was tested. Which “cell survival / live colonies after IgM anti-Fas treatment” value did it give?
Answer: nearly every well of the OL-1-transduced cells contained live colonies of cells
